The chains are these.
B1: IKZF4, Q9H2S9 (protein)
chain: MHTPPALPRRFQGGGRVRTPGSHRQGKDNLERDPSGGCVPDFLPQAQDSNHFIMESLFCESSGDSSLEKEFLGAPVGPSVSTPNSQHSSPSRSLSANSIKVEMYSDEESSRLLGPDERLLEKDDSVIVEDSLSEPLGYCDGSGPEPHSPGGIRLPNGKLKCDVCGMVCIGPNVLMVHKRSHTGERPFHCNQCGASFTQKGNLLRHIKLHSGEKPFKCPFCNYACRRRDALTGHLRTHSVSSPTVGKPYKCNYCGRSYKQQSTLEEHKERCHNYLQSLSTEAQALAGQPGDEIRDLEMVPDSMLHSSSERPTFIDRLANSLTKRKRSTPQKFVGEKQMRFSLSDLPYDVNSGGYEKDVELVAHHSLEPGFGSSLAFVGAEHLRPLRLPPTNCISELTPVISSVYTQMQPLPGRLELPGSREAGEGPEDLADGGPLLYRPRGPLTDPGASPSNGCQDSTDTESNHEDRVAGVVSLPQGPPPQPPPTIVVGRHSPAYAKEDPKPQEGLLRGTPGPSKEVLRVVGESGEPVKAFKCEHCRILFLDHVMFTIHMGCHGFRDPFECNICGYHSQDRYEFSSHIVRGEHKVG
B2: NKX2-2, O95096 (protein)
chain: MSLTNTKTGFSVKDILDLPDTNDEEGSVAEGPEEENEGPEPAKRAGPLGQGALDAVQSLPLKNPFYDSSDNPYTRWLASTEGLQYSLHGLAAGAPPQDSSSKSPEPSADESPDNDKETPGGGGDAGKKRKRRVLFSKAQTYELERRFRQQRYLSAPEREHLASLIRLTPTQVKIWFQNHRYKMKRARAEKGMEVTPLPSPRRVAVPVLVRDGKPCHALKAQDLAAATFQAGIPFSAYSAQSLQHMQYNAQYSSASTPQYPTAHPLVQAQQWTW
B3: NFKBIA, P25963 (protein)
chain: MFQAAERPQEWAMEGPRDGLKKERLLDDRHDSGLDSMKDEEYEQMVKELQEIRLEPQEVPRGSEPWKQQLTEDGDSFLHLAIIHEEKALTMEVIRQVKGDLAFLNFQNNLQQTPLHLAVITNQPEIAEALLGAGCDPELRDFRGNTPLHLACEQGCLASVGVLTQSCTTPHLHSILKATNYNGHTCLHLASIHGYLGIVELLVSLGADVNAQEPCNGRTALHLAVDLQNPDLVSLLLKCGADVNRVTYQGYSPYQLTWGRPSTRIQQQLGQLTLENLQMLPESEDEESYDTESEFTEFTEDELPYDDCVFGGQRLTL
B4: NACC2, Q96BF6 (protein)
chain: MSQMLHIEIPNFGNTVLGCLNEQRLLGLYCDVSIVVKGQAFKAHRAVLAASSLYFRDLFSGNSKSAFELPGSVPPACFQQILSFCYTGRLTMTASEQLVVMYTAGFLQIQHIVERGTDLMFKVSSPHCDSQTAVIEDAGSEPQSPCNQLQPAAAAAAPYVVSPSVPIPLLTRVKHEAMELPPAGPGLAPKRPLETGPRDGVAVAAGAAVAAGTAPLKLPRVSYYGVPSLATLIPGIQQMPYPQGERTSPGASSLPTTDSPTSYHNEEDEEDDEAYDTMVEEQYGQMYIKASGSYAVQEKPEPVPLESRSCVLIRRDLVALPASLISQIGYRCHPKLYSEGDPGEKLELVAGSGVYITRGQLMNCHLCAGVKHKVLLRRLLATFFDRNTLANSCGTGIRSSTSDPSRKPLDSRVLNAVKLYCQNFAPSFKESEMNVIAADMCTNARRVRKRWLPKIKSMLPEGVEMYRTVMGSAAASVPLDPEFPPAAAQVFEQRIYAERRGDAATIVALRTDAVNVDLSAAANPAFDAGEEVDGAGSVIQEVAAPEPLPADGQSPPQPFEQGGGGPSRPQTPAAAARRPEGTYAGTL
B5: FOXD4L3, Q6VB84 (protein)
chain: MNLPRAERLRSTPQRSLRDSDGEDGKIDVLGEEEDEDEVEDEEEAASQQFLEQSLQPGLQVARWGGVALPREHIEGGGGPSDPSEFGTKFRAPPRSAAASEDARQPAKPPYSYIALITMAILQNPHKRLTLSGICAFISGRFPYYRRKFPAWQNSIRHNLSLNDCFVKIPREPGHPGKGNYWSLDPASQDMFDNGSFLRRRKRFKRHQLTPGAHLPHPFPLPAAHAALHNPRPGPLLGAPAPPQPVPGAYPNTAPGRRPYALLHPHPLRYLLLSAPVYAGAPKKAEGAALATPAPFPCCSPHLVLSLGRRARVWRRHREADASLSALRVLCKGSGERVQGLRRICPRPRGATATCSSDHQACCIPRPLPLCCKCPPPPLLGQFCSNSSSIRRRTAPTAALPPRARCWAGTCRPRRPC
B6: MID2, Q9UJV3 (protein)
chain: MGESPASVVLNASGGLFSLKMETLESELTCPICLELFEDPLLLPCAHSLCFSCAHRILVSSCSSGESIEPITAFQCPTCRYVISLNHRGLDGLKRNVTLQNIIDRFQKASVSGPNSPSESRRERTYRPTTAMSSERIACQFCEQDPPRDAVKTCITCEVSYCDRCLRATHPNKKPFTSHRLVEPVPDTHLRGITCLDHENEKVNMYCVSDDQLICALCKLVGRHRDHQVASLNDRFEKLKQTLEMNLTNLVKRNSELENQMAKLIQICQQVEVNTAMHEAKLMEECDELVEIIQQRKQMIAVKIKETKVMKLRKLAQQVANCRQCLERSTVLINQAEHILKENDQARFLQSAKNIAERVAMATASSQVLIPDINFNDAFENFALDFSREKKLLEGLDYLTAPNPPSIREELCTASHDTITVHWISDDEFSISSYELQYTIFTGQANFISKSWCSWGLWPEIRKCKEAVSCSRLAGAPRGLYNSVDSWMIVPNIKQNHYTVHGLQSGTRYIFIVKAINQAGSRNSEPTRLKTNSQPFKLDPKMTHKKLKISNDGLQMEKDESSLKKSHTPERFSGTGCYGAAGNIFIDSGCHYWEVVMGSSTWYAIGIAYKSAPKNEWIGKNASSWVFSRCNSNFVVRHNNKEMLVDVPPHLKRLGVLLDYDNNMLSFYDPANSLHLHTFDVTFILPVCPTFTIWNKSLMILSGLPAPDFIDYPERQECNCRPQESPYVSGMKTCH
B7: GPBP1, Q86WP2 (protein)
chain: MAQHDFAPAWLNFPTPPSSTKSSLNFEKHSENFAWTENRYDVNRRRHNSSDGFDSAIGRPNGGNFGRKEKNGWRTHGRNGTENINHRGGYHGGSSRSRSSIFHAGKSQGLHENNIPDNETGRKEDKRERKQFEAEDFPSLNPEYEREPNHNKSLAAGVWEYPPNPKSRAPRMLVIKKGNTKDLQLSGFPVVGNLPSQPVKNGTGPSVYKGLVPKPAAPPTKPTQWKSQTKENKVGTSFPHESTFGVGNFNAFKSTAKNFSPSTNSVKECNRSNSSSPVDKLNQQPRLTKLTRMRTDKKSEFLKALKRDRVEEEHEDESRAGSEKDDDSFNLHNSNSTHQERDINRNFDENEIPQENGNASVISQQIIRSSTFPQTDVLSSSLEAEHRLLKEMGWQEDSENDETCAPLTEDEMREFQVISEQLQKNGLRKNGILKNGLICDFKFGPWKNSTFKPTTENDDTETSSSDTSDDDDV
B8: PRDX3, P30048 (protein)
chain: MAAAVGRLLRASVARHVSAIPWGISATAALRPAACGRTSLTNLLCSGSSQAKLFSTSSSCHAPAVTQHAPYFKGTAVVNGEFKDLSLDDFKGKYLVLFFYPLDFTFVCPTEIVAFSDKANEFHDVNCEVVAVSVDSHFSHLAWINTPRKNGGLGHMNIALLSDLTKQISRDYGVLLEGSGLALRGLFIIDPNGVIKHLSVNDLPVGRSVEETLRLVKAFQYVETHGEVCPANWTPDSPTIKPSPAASKEYFQKVNQ
B9: TBX20, Q9UMR3 (protein)
chain: MEFTASPKPQLSSRANAFSIAALMSSGGSKEKEATENTIKPLEQFVEKSSCAQPLGELTSLDAHGEFGGGSGSSPSSSSLCTEPLIPTTPIIPSEEMAKIACSLETKELWDKFHELGTEMIITKSGRRMFPTIRVSFSGVDPEAKYIVLMDIVPVDNKRYRYAYHRSSWLVAGKADPPLPARLYVHPDSPFTGEQLLKQMVSFEKVKLTNNELDQHGHIILNSMHKYQPRVHIIKKKDHTASLLNLKSEEFRTFIFPETVFTAVTAYQNQLITKLKIDSNPFAKGFRDSSRLTDIERESVESLIQKHSYARSPIRTYGGEEDVLGDESQTTPNRGSAFTTSDNLSLSSWVSSSSSFPGFQHPQSLTALGTSTASIATPIPHPIQGSLPPYSRLGMPLTPSAIASSMQGSGPTFPSFHMPRYHHYFQQGPYAAIQGLRHSSAVMTPFV
B10: ZNF250, P15622 (protein)
chain: MAAARLLPVPAGPQPLSFQAKLTFEDVAVLLSQDEWDRLCPAQRGLYRNVMMETYGNVVSLGLPGSKPDIISQLERGEDPWVLDRKGAKKSQGLWSDYSDNLKYDHTTACTQQDSLSCPWECETKGESQNTDLSPKPLISEQTVILGKTPLGRIDQENNETKQSFCLSPNSVDHREVQVLSQSMPLTPHQAVPSGERPYMCVECGKCFGRSSHLLQHQRIHTGEKPYVCSVCGKAFSQSSVLSKHRRIHTGEKPYECNECGKAFRVSSDLAQHHKIHTGEKPHECLECRKAFTQLSHLIQHQRIHTGERPYVCPLCGKAFNHSTVLRSHQRVHTGEKPHRCNECGKTFSVKRTLLQHQRIHTGEKPYTCSECGKAFSDRSVLIQHHNVHTGEKPYECSECGKTFSHRSTLMNHERIHTEEKPYACYECGKAFVQHSHLIQHQRVHTGEKPYVCGECGHAFSARRSLIQHERIHTGEKPFQCTECGKAFSLKATLIVHLRTHTGEKPYECNSCGKAFSQYSVLIQHQRIHTGEKPYECGECGRAFNQHGHLIQHQKVHRKL

This is one part of the list. Binding of human transcription factors and regulators to the viral nucleoprotein by AlphaScreen, crude cell-free proteins, amounts not normalised, one pass. Fold of the Venus control; higher = more signal. No active / inactive call. Single-pass screen; sequences are the whole Swiss-Prot entries looked up by name.

This assay concerns the target nucleoprotein N of Crimean-Congo hemorrhagic fever virus. Briefly: AlphaScreen luminescence signal relative to Venus negative control (fold); higher = stronger binding to CCHFV N. The method, then:
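AlphaScreen binding of cell-free made, FLAG-GST-tagged human transcription factors and regulators (crude translation products) to biotinylated N protein; signal as fold of the FLAG-GST-Venus control. One pass.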
Background: In Alpha technology, singlet oxygen from a donor bead excites a nearby acceptor bead.
For B1, the AlphaScreen luminescence signal was found to be 1.77.

Molecule B2 came in with an AlphaScreen luminescence signal of 2.42.

Molecule B3 had an AlphaScreen luminescence signal of 4.05.

Molecule B4 returned an AlphaScreen luminescence signal of 2.05.

In turn, B5 came in with an AlphaScreen luminescence signal of 1.67. The result for B6 reads 2.28; that for B7, 18.1.

B8: the AlphaScreen luminescence signal was determined as 1.49. Under B9 stands 2.7; under B10, 1.86.

These data come from the supplement of paper PMC12423691.
